# From PubChem BioAssay AID602310 (National Center for Advancing Translational Sciences (NCATS), 2012)
# The whole screen tested about 410,000 compounds, of which about 310 (0.076%) were called active. Inconclusive results, whose numbers are uncertain, are shown with a selection of clear calls. Calls follow the shape of the dose curve; as a rule, active = well fitted curve in the direction sought with a large enough effect; inconclusive = small, poorly fitted or top-dose-only effect; inactive = flat fitted curve, though single readings scatter. Where the call is inconclusive, the potency comes from a doubtful curve fit.
# Molecular target: DNA dC->dU-editing enzyme APOBEC-3G (Homo sapiens) (UniProt Q9HC16)
# Sequence of UniProt Q9HC16 (Q9HC16 whole entry, looked up): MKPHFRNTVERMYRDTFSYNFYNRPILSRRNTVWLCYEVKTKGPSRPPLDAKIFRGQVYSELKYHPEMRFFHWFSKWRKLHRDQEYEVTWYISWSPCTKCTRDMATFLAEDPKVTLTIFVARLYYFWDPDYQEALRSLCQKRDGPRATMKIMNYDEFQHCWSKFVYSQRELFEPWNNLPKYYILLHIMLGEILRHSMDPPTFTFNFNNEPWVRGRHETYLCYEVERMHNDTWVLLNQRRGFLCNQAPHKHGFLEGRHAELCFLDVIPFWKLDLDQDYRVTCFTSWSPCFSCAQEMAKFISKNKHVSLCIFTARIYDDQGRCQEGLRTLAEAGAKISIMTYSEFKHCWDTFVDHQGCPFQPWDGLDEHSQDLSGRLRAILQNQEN
# Test: qHTS for Inhibitors of Vif-A3G Interactions: qHTS; also: nearly all actives have a fitted effect of over 60% in size
# Settings: HeLa A3G-eYFP + Vif (tagged APOBEC3G with the HIV-1 protein that degrades it), YFP fluorescence, overnight; series mostly up to 46.1 µM
# In short: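 HeLa cells stably expressing Vif and C-terminally eYFP-tagged A3G, seeded overnight at 37 deg C, then exposed to compound by pintool overnight at 37 deg C. Rise in yellow fluorescence (Ex 488/Em 500-530, Acumen) marks blocked Vif-driven A3G degradation.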
# Potency is read from the fitted curve at half-maximal effect; tags tell the direction and shape of the fitted curve.
row,Structure (SMILES),Potency
1,Cc1ccc(S(=O)(=O)Nc2ccc(O)c(Sc3ncn[nH]3)c2)cc1,inactive
2,O=C(C1CCCN(S(=O)(=O)c2cccc3nonc23)C1)N1CCN(c2ccccc2)CC1 (centres undefined),inactive
3,CCOc1ccc(S(=O)(=O)Nc2cc3c(C(=O)OCc4ccccc4)c(C)oc3c3ccccc23)cc1,"inconclusive: 7.94 µM [inhibitor, partial curve, poor fit]"
4,CCOC(=O)N1CCN(C(=O)CSc2ccc3nnc(-c4ccccn4)n3n2)CC1,inactive
5,CC(=O)NC(c1ccco1)c1ccc2cccnc2c1O (centres undefined),"inconclusive: 7.08 µM [inhibitor, full curve, poor fit]"
6,CCc1cc(=O)oc2cc(OC(C)C(=O)NCC(O)c3ccccc3)c(Cl)cc12 (centres undefined),"inconclusive: 35.5 µM [inhibitor, single point]"
7,CCOc1ccc(NC(=O)COc2ccc(C(=O)NCc3cccnc3)cc2OC)cc1,inactive
8,O=C(c1ccc2c(c1)[nH]c(=S)n1c3ccccc3nc21)N1CCN(c2cccc(Cl)c2)CC1,inactive
9,Clc1cccc(Cc2c(-c3ccco3)nc3ccc(Br)cn23)c1,"inconclusive: 22.4 µM [inhibitor, single point]"
10,COc1ccc(CN([C@H](CO)CC(C)C)S(=O)(=O)N(Cc2ccccc2)[C@H](CO)CC(C)C)cc1,"inconclusive: 28.2 µM [inhibitor, single point]"
11,O=C(c1ccccc1F)n1c2c(c3ccccc31)CCCC2,"inconclusive: 6.31 µM [inhibitor, full curve]"
12,O=C(/C=C/c1ccc(Cl)cc1)c1ccc([N+](=O)[O-])o1,"inconclusive: 4.47 µM [inhibitor, full curve]"
13,COc1cc(C(=O)N=c2sccn2C)c([N+](=O)[O-])cc1OC,inactive
14,CC(Oc1ccc(C#N)cc1)C(=O)N1CC=C(c2ccccc2)CC1 (centres undefined),"inconclusive: 22.4 µM [inhibitor, single point]"
15,Cc1ccc(-n2c(=O)c3c4c(sc3n(CC(=O)C(C)(C)C)c2=O)CCCCC4)cc1C,inactive
16,CCn1ncc(C2=NOC(C(=O)NCc3ccc(Cl)cc3)C2)c1C (centres undefined),"inconclusive: 2.51 µM [inhibitor, full curve, poor fit]"
17,CCc1ccc(N=Nc2ccc(O)c3[nH]cnc23)cc1,"inconclusive: 7.08 µM [inhibitor, partial curve, poor fit]"
18,C=C1C(=O)OC2C1CCC(C)C1C=CC(=O)C12C (centres undefined),"inconclusive: 11.2 µM [inhibitor, partial curve]"
19,COc1ccc(-c2cnc3c(NC=O)cc(-c4cc(OC)c(OC)c(OC)c4)cn23)cc1OC,"inconclusive: 17.8 µM [inhibitor, partial curve, poor fit]"
